{"source": "patent US9045526B2", "about": "(THE REGENTS OF THE UNIVERSITY OF MICHIGAN, priority 2011, dated 2015)", "key": {"mu-opioid receptor (MOR)": {"target": "T1, mu-opioid receptor (MOR) (Rattus norvegicus, UniProt P33535)", "T1 construct": "expressed in transfected cells; host or cells: C6 rat glioma cells (C6-MOR), stably transfected", "T1 sequence (P33535 whole entry)": "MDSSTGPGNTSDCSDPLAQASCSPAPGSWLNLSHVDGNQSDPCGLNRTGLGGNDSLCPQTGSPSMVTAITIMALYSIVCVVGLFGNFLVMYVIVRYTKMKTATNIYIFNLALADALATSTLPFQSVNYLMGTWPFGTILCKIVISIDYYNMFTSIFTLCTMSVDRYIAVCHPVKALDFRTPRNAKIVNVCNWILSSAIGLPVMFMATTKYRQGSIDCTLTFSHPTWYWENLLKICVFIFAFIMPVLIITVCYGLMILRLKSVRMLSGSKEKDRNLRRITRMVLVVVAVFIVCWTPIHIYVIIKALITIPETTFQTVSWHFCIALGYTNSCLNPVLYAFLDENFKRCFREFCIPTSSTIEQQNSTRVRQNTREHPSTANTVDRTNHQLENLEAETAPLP", "assay_type": "binding"}, "[1]": {"target": "T2, kappa-opioid receptor (KOR) (Homo sapiens, UniProt P41145)", "T2 construct": "expressed in transfected cells", "T2 sequence (P41145 whole entry)": "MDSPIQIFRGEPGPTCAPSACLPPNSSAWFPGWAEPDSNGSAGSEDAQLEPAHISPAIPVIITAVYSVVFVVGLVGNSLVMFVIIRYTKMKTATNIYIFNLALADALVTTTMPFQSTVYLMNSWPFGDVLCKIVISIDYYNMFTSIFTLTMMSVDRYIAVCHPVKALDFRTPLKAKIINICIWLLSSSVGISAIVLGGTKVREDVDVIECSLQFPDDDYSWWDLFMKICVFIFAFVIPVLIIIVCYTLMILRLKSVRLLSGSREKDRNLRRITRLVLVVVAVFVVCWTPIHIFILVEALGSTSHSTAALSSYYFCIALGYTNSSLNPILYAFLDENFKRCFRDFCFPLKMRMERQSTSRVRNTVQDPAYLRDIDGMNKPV", "assay": "Radioligand binding, displacement of [3H]diprenorphine, CHO-KOR membranes"}}, "note": "Peptide text beside a SMILES is read from it.", "data": [{"smiles": "Cc1cc(O)cc(C)c1C[C@H](N)C(=O)N1Cc2ccccc2C[C@H]1C(=O)NCC(=O)NCc1ccccc1", "note": "[Dmt-Tic-Gly-NH-Bzl, reference compound] (HELM PEPTIDE1{[Cc1cc(O)cc(C)c1C[C@H](N)C(=O)[*:2]].[Tic].G.[c1ccc(CN[*:1])cc1]}$$$$V2.0; N-terminus assumed)", "values": [{"measurement": "decrease in affinity to MOR relative to DOR", "setting": "mu-opioid receptor (MOR)", "value": 130, "unit": "fold"}, {"measurement": "decrease in affinity to KOR relative to DOR", "setting": "[1]", "value": 640, "unit": "fold"}]}]}
